Data taken from PMC4416901, “The Mycobacterium tuberculosis ClpP1P2 Protease Interacts Asymmetrically with Its ATPase Partners ClpX and ClpC1” (PLoS ONE, 2015).

B1: mature ClpP1 produced by in vitro processing of proClpP1 in the ClpP1P2 double-ring (enzyme)
chain: not shown
notes: Mtb ClpP1 after propeptide cleavage; The cleavage site is called predominant, so other N-termini may be present; also called mClpP1; wtClpP1; not shown: His4, C-terminal, kept
B2: proClpP1 (Mycobacterium tuberculosis ClpP1 containing the N-terminal propeptide) (enzyme)
chain: not shown
notes: Mtb ClpP1, full length with its N-terminal propeptide; also called full-length ClpP1; Mtb ClpP1

How the values were obtained:
[1] = target: T1, mature ClpP2 produced by in vitro processing of proClpP2 in the ClpP1P2 double-ring (Mycobacterium tuberculosis H37Rv); experiment: SEC; details: both partners purified
T1 construct: Mtb ClpP2 after propeptide cleavage, processed after Ala12; also called mClpP2; wtClpP2; not shown: His4, C-terminal, kept

SEC = target: the molecule itself; experiment: SEC
[2] = target: the molecule itself; experiment: negative stain electron microscopy; 1.4 μM proClpP1 protomer on a carbon-coated grid, 2% uranyl acetate

Binder | binding result [1] | binding result (SEC) | binding result [2]
B1 | binds | binds | 
B2 |  |  | binds
